Experimental data published in PubChem BioAssay (NCATS).
Some of the results follow. The main result of the screen is listed elsewhere. These columns were measured beside it and carry no call. The list favours compounds with an active or inconclusive main result. The note in brackets gives the kind of curve behind each potency; many fits are weak.

Test: qHTS Assay for Lipid Storage Modulators (AID 1519)
Conditions: Drosophila S3 cells, BODIPY lipid droplet/cell ratio, laser cytometry, cells loaded with oleic acid
Summary of the method: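 Cells seeded at 5,000 per well were treated with compounds over a concentration series and loaded with oleic acid (400 uM, as added). Lipid droplet fluorescence (488 nm excitation, 500-530 nm channel) was read by laser-scanning cytometry and normalized to 20 uM Triacsin C.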

[1] = measured here: cell count channel max response
[2] = measured here: cell number channel AC50
[3] = measured here: lipid (BODIPY) channel AC50
[4] = measured here: lipid channel max response
Tags tell the direction and shape of the fitted curve.

## COc1ccccc1N1CCN(CCCCNC(=O)c2ccc(-c3ccc(C(C)=O)cc3)cc2)CC1
[1]
  max response: 48.1%
[2]
  AC50: 14.1 µM [rising, partial curve, poor fit]
[3]
  AC50: 28.2 µM [rising, partial curve, poor fit]
[4]
  max response: 59.8%

## Cc1cnc(CNc2ccnc(-c3cccnc3)n2)cn1
[1]
  max response: 38%
[2]
  AC50: 2.24 µM [rising, full curve, poor fit]
[3]
  AC50: 2.51 µM [rising, full curve, poor fit]
[4]
  max response: 48.7%

## O=C(/C=C/c1ccccc1)c1cccs1
[1]
  max response: 99.4%
[2]
  AC50: 25.1 µM [rising, partial curve]
[3]
  AC50: 8.91 µM [rising, full curve]
[4]
  max response: 73.4%

## O=C(c1ccco1)N1CCC2(CCCN(c3ccccn3)C2)CC1
[1]
  max response: 0.458%
[2]
  AC50: 0.0794 µM [rising, full curve, poor fit]
[3]
  AC50: 0.0501 µM [rising, full curve, poor fit]
[4]
  max response: 9.38%

## CCNc1ncc2nc(-c3ccccc3)c(=O)n(Cc3ccc(F)cc3)c2n1
[1]
  max response: 14.2%
[2]
  AC50: 0.891 µM [rising, partial curve]
[3]
  AC50: 0.708 µM [rising, partial curve]
[4]
  max response: 15.1%

## COc1ncc2nc(CCc3ccccc3)c(=O)n(CCC#N)c2n1
[1]
  max response: 28.5%
[2]
  AC50: 0.0708 µM [rising, full curve, poor fit]
[3]
  AC50: 0.0631 µM [rising, full curve]
[4]
  max response: 42%

## COc1cccc(-c2nccc(N(C)Cc3ccco3)n2)c1
[1]
  max response: 32%
[2]
  AC50: 2.24 µM [rising, full curve, poor fit]
[3]
  AC50: 2 µM [rising, full curve, poor fit]
[4]
  max response: 38.6%

## O=C(Nc1ccccc1)N1CCCC2(CCN(C(=O)c3csnn3)CC2)C1
[1]
  max response: 11.7%
[2]
  AC50: 1.58 µM [rising, partial curve]
[3]
  AC50: 1 µM [rising, full curve, poor fit]
[4]
  max response: 23.9%

## CN(C)c1ccc(-c2ccc3ncnc(NC4CC4)c3c2)cc1
[1]
  max response: -2.1%
[2]
  AC50: 0.02 µM [rising, full curve]
[3]
  AC50: 0.02 µM [rising, full curve]
[4]
  max response: -2.99%

## COCCn1c(=O)c(CCc2ccccc2)nc2cnc(N3CCOCC3)nc21
[1]
  max response: 33.5%
[2]
  AC50: 3.55 µM [rising, full curve]
[3]
  AC50: 3.16 µM [rising, full curve]
[4]
  max response: 44.1%

## C[C@@H]1CCN=C(N)S1
[1]
  max response: -8.93%
[2]
  AC50: 0.001 µM [falling, full curve, poor fit]
[3]
  AC50: 0.001 µM [falling, full curve, poor fit]
[4]
  max response: -2.79%

## Clc1ccccc1-c1ccc2ncnc(NCCN3CCOCC3)c2c1
[1]
  max response: 11.7%
[2]
  AC50: 3.98 µM [rising, single point]
[3]
  AC50: 3.98 µM [rising, single point]
[4]
  max response: 5.52%

## CNc1ncncc1-c1ccccc1C(F)(F)F
[1]
  max response: 38%
[2]
  AC50: 1 µM [rising, partial curve]
[3]
  AC50: 7.08 µM [rising, partial curve, poor fit]
[4]
  max response: 46.6%

## CN(C)c1ncc2nc(CCc3ccccc3)c(=O)n(C3CC3)c2n1
[1]
  max response: 34.1%
[2]
  AC50: 3.16 µM [rising, full curve, poor fit]
[3]
  AC50: 2.82 µM [rising, full curve]
[4]
  max response: 42.4%

## COc1ccccc1CNc1nc(-c2cccnc2)nc2ccccc12
[1]
  max response: 25.3%
[2]
  AC50: 0.794 µM [rising, full curve]
[3]
  AC50: 0.708 µM [rising, full curve]
[4]
  max response: 33.7%

## CN1CCN(c2ncc3nc(-c4cn(C)c5ccccc45)c(=O)n(-c4ccccc4)c3n2)CC1
[1]
  max response: 30.7%
[2]
  AC50: 1.58 µM [rising, partial curve]
[3]
  AC50: 0.708 µM [rising, full curve, poor fit]
[4]
  max response: 29.4%

## O=c1c(-c2cccs2)nc2cnc(Oc3ccccc3)nc2n1C1CC1
[1]
  max response: 16.9%
[2]
  AC50: 3.55 µM [rising, partial curve]
[3]
  AC50: 1.41 µM [rising, partial curve]
[4]
  max response: -6.1%

## COc1ccc(-n2c(=O)c(-c3cccc(F)c3)nc3cncnc32)cc1
[1]
  max response: 38.7%
[2]
  AC50: 0.631 µM [rising, full curve]
[3]
  AC50: 0.631 µM [rising, full curve]
[4]
  max response: 46.3%

## COc1cccc(-c2nc(NCc3ccc(OC)cc3OC)c3ccccc3n2)c1
[1]
  max response: 15.5%
[2]
  AC50: 2.82 µM [rising, single point]
[3]
  AC50: 2.82 µM [rising, partial curve, poor fit]
[4]
  max response: 20.5%
